Measurements: a compilation of properties of binary mixtures (doi:10.1016/j.tca.2013.02.002)
Some of these densities may be calculated back from excess volumes.

Assay: xn = mol fraction of the nth substance listed
Conditions: 101 kPa

CS(C)=O + CC[NH+](CC)CC.O=S(=O)([O-])O
x1 = 1
Conditions | mass density [kg/m3]
298.15 K | 1095.4
303.15 K | 1092.4
308.15 K | 1086.1

CC[NH+](CC)CC.O=S(=O)([O-])O + CS(C)=O
mass density [kg/m3]
Conditions | 298.15 K | 303.15 K | 308.15 K
x1 = 0.011 | – | – | 1087.3
x2 = 0 | 1142.9 | 1141.8 | 1140.7
x2 = 0.0244 | – | 1141.1 | 1140
x2 = 0.0557 | 1141.3 | 1140.2 | 1139
x2 = 0.108 | 1139.8 | 1138.7 | 1137.4
x2 = 0.1556 | 1138.3 | 1137.2 | 1135.8
x2 = 0.199 | – | 1135.9 | 1134.3
x2 = 0.2473 | 1135.4 | 1134.2 | –
x2 = 0.3279 | 1132.6 | 1131.3 | 1129.5
x2 = 0.4004 | 1129.9 | 1128.5 | –
x2 = 0.4964 | 1126 | 1124.6 | 1122
x2 = 0.5798 | 1122.3 | 1120.7 | 1117.8
x2 = 0.653 | 1118.6 | – | 1113.7
x2 = 0.7376 | 1114 | 1112.2 | 1108.4
x2 = 0.7812 | 1111.5 | 1109.5 | 1105.4
x2 = 0.8269 | 1108.5 | 1106.4 | 1102
x2 = 0.8772 | 1105.1 | 1102.8 | 1097.9
x2 = 0.9156 | 1102.2 | 1099.8 | 1094.4
x2 = 0.9539 | – | 1096.6 | 1090.9
